Experimental findings from PubChem BioAssay (NCI) are described below.

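1) Cells in 96-well plates. 2) Compound, 48 h, 5 concentrations. 3) Linear interpolation between surrounding doses. 4) Unreached endpoint = highest concentration. Here, GI50 denotes the concentration required for 50% inhibition of growth. TGI marks complete inhibition of growth.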

For this assay, the system named is NCI-H322M lung. As to the kind of experiment: inhibition of tumour cell growth, NCI panel, 48 h.

For `CCc1cccc2c3c(sc12)C(c1ccc(Cl)cc1)C(C#N)=C(/N=C/c1ccc(Cl)cc1)O3` (centres undefined), the GI50 is 2470 nM and the TGI was over 50 µM.

Take `Cc1ccc2c(n1)C(=O)C(Cl)=C(Nc1ccc(C(F)(F)F)cc1)C2=O`: the GI50 was over 100000 nM and the TGI is over 100 µM.
